Reference: PubChem BioAssay (NCATS)
Some of the results follow. Further columns of the screen follow, without active or inactive calls. Compounds called inactive in the main read-out are mostly missing here. The note in brackets gives the kind of curve behind each potency; many fits are weak.

Assay: qHTS Assay for Lipid Storage Modulators (AID 1519)
Conditions: Drosophila S3 cells, BODIPY lipid droplet/cell ratio, laser cytometry, cells loaded with oleic acid
Summary of the method: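 Cells seeded at 5,000 per well were treated with compounds over a concentration series and loaded with oleic acid (400 uM, as added). Lipid droplet fluorescence (488 nm excitation, 500-530 nm channel) was read by laser-scanning cytometry and normalized to 20 uM Triacsin C.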

[1] = measured here: cell count channel max response
[2] = measured here: lipid (BODIPY) channel AC50
[3] = measured here: lipid channel max response
[4] = measured here: cell number channel AC50
Tags give direction and shape of the fitted curve.

SMILES | max response [1] [%] | AC50 [2] | max response [3] [%] | AC50 [4]
O=C(Nc1cccc(F)c1)N1CC2(CCN(C(=O)c3ccncc3)CC2)C1 | 25.7 | 39.8 µM [rising, single point] | 41.7 | –
O=c1c(-c2ccc(F)cc2)nc2cnc(Nc3ccccc3)nc2n1Cc1cccs1 | 7.26 | 0.891 µM [rising, single point] | -0.351 | –
COCCn1c(=O)c(-c2ccccc2)nc2cncnc21 | 28 | 4.47 µM [rising, partial curve] | 32.9 | –
Nc1ncnc2c1ncn2C1CCCC1 | 55.7 | – | 53.6 | 0.00251 µM [rising, full curve, poor fit]
CC1CC[C@@]23CCC4(C)[C@@]5(C)CCC6C(C)(C)C(=O)CC[C@@]6(C)C5C=C[C@@]4(OC2=O)C3C1C (stereo partly drawn) | 22.9 | 35.5 µM [rising, single point] | 33.7 | –
COc1ccc(Oc2ncc3nc(-c4ccc(Cl)cc4)c(=O)n(CCC#N)c3n2)cc1 | 3.47 | 0.316 µM [rising, full curve, poor fit] | 7.65 | –
CS(=O)(=O)Nc1cccc(-c2cncnc2-n2ccnc2)c1 | 26.4 | 2.24 µM [rising, full curve] | 36.2 | –
COc1ncc2ncc(=O)n(C3CC3)c2n1 | 26.2 | 25.1 µM [rising, single point] | 31.7 | –
COCC(=O)N1CCC2(CCCN(C(=O)Nc3ccccc3)C2)CC1 | 21.7 | 0.355 µM [rising, full curve, poor fit] | 32.4 | –
COCCn1c(=O)c(-c2cc(F)cc(F)c2)nc2cnc(N3CCN(C)CC3)nc21 | 23.4 | 39.8 µM [rising, single point] | 33.5 | –
COc1ccc(Oc2ncc3nc(-c4ccc(F)cc4)c(=O)n(CCC#N)c3n2)cc1 | 10.2 | 2.82 µM [rising, partial curve] | 15 | –
COCC(=O)N1CCC2(CC1)CN(C(=O)Nc1ccccc1)C2 | 17.5 | 0.02 µM [rising, full curve, poor fit] | 21.6 | –
COCC(=O)N1CCC2(CCCN(c3ccccn3)C2)CC1 | -3.7 | 3.16 µM [rising, partial curve] | 1.51 | –
CS(=O)(=O)Nc1cccc(-c2nc(NCc3ccccc3)c3ccccc3n2)c1 | 21.7 | 1 µM [rising, full curve, poor fit] | 29.9 | –
COc1ccc(-c2coc3cc(O)ccc3c2=O)cc1 | 38.8 | 10 µM [rising, full curve, poor fit] | 72.7 | –
CCOC(=O)C1=C[C@@]2(CC)CCCN3CCc4c(n1c1ccccc41)C32 (stereo partly drawn) | 12.2 | 39.8 µM [rising, single point] | 32 | –
Cc1cnc(CNc2nc(-c3cccnc3)nc3ccccc23)cn1 | 3.21 | 2.51 µM [rising, partial curve] | 13.9 | –
O=c1c(-c2ccccc2)nc2cnc(Nc3ccccc3)nc2n1C[C@H]1CCCO1 | -5.82 | 7.94 µM [falling, partial curve] | -48.2 | –
COc1cccc(Cn2c(=O)c(-c3cccc(C#N)c3)nc3cnc(OC)nc32)c1 | 20.8 | 0.1 µM [rising, full curve] | 26 | –

SMILES | max response [1] [%] | AC50 [2] | max response [3] [%] | AC50 [4]
COc1ncc2nc(-c3cccs3)c(=O)n(Cc3cccs3)c2n1 | 24.2 | 2.82 µM [rising, full curve, poor fit] | 28.4 | –
COc1ccc(C(=O)N2CCC3(CC2)CCN(c2cccc(-c4ccccc4)c2)CC3)cc1 | 13 | 3.98 µM [rising, full curve, poor fit] | 24.1 | –
CC(=O)OC(C)(C)C1Cc2cc3ccc(=O)oc3cc2O1 (stereo not drawn) | 10.5 | 4.47 µM [rising, full curve, poor fit] | 19 | –
N#Cc1cccc(NC(=O)N2CC3(CCN(C(=O)c4cnccn4)CC3)C2)c1 | 27.6 | 3.16 µM [rising, single point] | 37.2 | –
O=C(Nc1ccccc1)N1CCC2(CC1)CCN(C(=O)c1ccco1)CC2 | 18.8 | 1.41 µM [rising, full curve, poor fit] | 30.1 | –
COc1cc(C(C)=O)cc(OC)c1O | 25.3 | 39.8 µM [rising, single point] | 34.5 | –
COCCn1c(=O)c(-c2cccs2)nc2cnc(Nc3ccccc3)nc21 | 53.9 | – | -21 | 3.55 µM [rising, partial curve]
O=c1cnc2cnc(OCc3ccccc3)nc2n1Cc1ccc(F)cc1 | 18.7 | 3.16 µM [rising, full curve] | 30.6 | –
COc1ccccc1N1CCN(C[C@@H](C(=O)NC(C)(C)C)c2ccccc2)CC1 | 29.9 | 20 µM [rising, single point] | 76.7 | –
Nc1nc(=O)n(C2OC(CO)C(O)C2O)cc1Cl (stereo not drawn) | 5.39 | 12.6 µM [rising, partial curve] | 37.2 | –
CC(C)NC[C@@H](O)COc1ccccc1-n1cccc1 | 23 | 22.4 µM [rising, partial curve, poor fit] | 30.9 | –
COc1ccc2[nH]cc(CCNc3ncnc4ccc(-c5ccccc5OC)cc34)c2c1 | -10.9 | 0.708 µM [rising, full curve] | -10.7 | –
N#Cc1ccccc1-c1ccc2ncnc(NCc3cccnc3)c2c1 | 16.5 | 1.41 µM [rising, full curve, poor fit] | 23.1 | –
COc1ccc(Oc2ncc3ncc(=O)n(Cc4cccc(OC)c4)c3n2)cc1 | 16.9 | 0.1 µM [rising, full curve, poor fit] | 27.3 | –
CN1CCN(c2ncc3nc(-c4cn(C)c5ccccc45)c(=O)n(CCc4ccccc4)c3n2)CC1 | 5.44 | 0.562 µM [rising, full curve] | 2.96 | –
COc1ccc(-c2nc3cnc(OC)nc3n(Cc3cccc(OC)c3)c2=O)cc1 | 21.5 | 0.112 µM [rising, full curve] | 32.8 | –
Cn1c(=O)c(-c2ccccc2)nc2cnc(Nc3ccccc3)nc21 | 12.7 | 0.631 µM [rising, full curve, poor fit] | 3.14 | –
COCCn1c(=O)c(CCc2ccccc2)nc2cnc(OCc3ccccc3)nc21 | 14 | 3.16 µM [rising, partial curve, poor fit] | 14.5 | –
COCCNc1ncnc2ccc(-c3ccccc3OC)cc12 | -11.9 | 1.58 µM [rising, partial curve, poor fit] | -24.9 | –

SMILES | max response [1] [%] | AC50 [2] | max response [3] [%] | AC50 [4]
O=c1cc(-c2cc(O)c(O)c(O)c2)oc2cc(O)cc(O)c12 | -28.6 | 39.8 µM [falling, single point] | -38.6 | –
COc1ncc2nc(-c3ccc(Cl)cc3)c(=O)n(C)c2n1 | 17.1 | 0.0631 µM [rising, full curve, poor fit] | 24.4 | –
Oc1ccc(Cl)c2cccnc12 | 18.7 | 28.2 µM [rising, single point] | 30.4 | –
CC(C)NC(=O)N1CCCC2(CCN(C(=O)c3cccn3C)CC2)C1 | 27.3 | 11.2 µM [rising, partial curve, poor fit] | 37.9 | –
CCCCCCCCCCCCCCCCCCc1ccc(C(=O)/C=C\C(=O)O)cc1 | 5.93 | – | -10.2 | 2.51 µM [rising, partial curve, poor fit]
N#CCCn1c(=O)cnc2cnc(OCc3ccccc3)nc21 | 27.3 | 2.51 µM [rising, partial curve] | 39.4 | –
Cc1noc(C)c1C(=O)N1CCC2(CC1)CN(c1cccc(-c3ccccc3)c1)C2 | -9.2 | 20 µM [falling, single point] | -43.1 | –
COC(=O)c1c(C)cc(O)cc1O | 26.6 | 17.8 µM [rising, partial curve, poor fit] | 36.6 | –
CC(=O)N1CCC2(CC1)CCN(C(c1ccccc1)c1ccccc1)CC2 | 25.3 | 28.2 µM [rising, partial curve, poor fit] | 37.5 | –
c1ccc(CNc2ncncc2-c2cccnc2)cc1 | 21.2 | 3.55 µM [rising, full curve, poor fit] | 25.4 | –
COc1cc(N)c(Cl)cc1C(=O)OCCN1CCCCC1 | 46.9 | 44.7 µM [rising, single point] | 47.9 | –
COc1cc(OC)c2c(=O)c(-c3ccccc3)c(C)oc2c1OC | 17.3 | 39.8 µM [rising, single point] | 31.8 | –
COc1ccc(C(=O)N2CCC3(CCCN(c4ccccn4)C3)CC2)cc1 | 17.7 | 0.282 µM [rising, full curve, poor fit] | 23.2 | –
c1ncc(-c2ccc3c(c2)OCO3)c(NCCc2cnc[nH]2)n1 | 23 | 0.631 µM [rising, full curve, poor fit] | 32.5 | –
N#Cc1ccc(CN2CC3(CCN(C(=O)c4ccncc4)CC3)C2)cc1 | 10.8 | 1.78 µM [rising, partial curve, poor fit] | 8.48 | –
O=C(c1cnccn1)N1CCC2(CCCN(c3ncccn3)C2)CC1 | 7.66 | 0.0316 µM [rising, partial curve, poor fit] | 18.2 | –
O=C(c1cnccn1)N1CCC2(CC1)CN(Cc1nccs1)C2 | 29.1 | 12.6 µM [rising, partial curve, poor fit] | 38.3 | –
CC1OC(OCC2OC(Oc3c(-c4ccc(OCCO)c(OCCO)c4)oc4cc(OCCO)cc(O)c4c3=O)C(O)C(O)C2O)[C@@H](O)C(O)C1O (stereo partly drawn) | 17.5 | 39.8 µM [rising, single point] | 34 | –
